Laboratory results: the supplement of paper PMC4604168 (melanoma cell lines)
Some of the results follow. Most values come without repeats; read them as rough.

Test system: COLO829
Test: cell count relative to DMSO control; melanoma cells; higher = more viable cells
Details: library dose: low library concentration; 72 h
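Also: cell number obtained by counting DAPI-stained nuclei in high-throughput microscope images with image analysis software, screen run in 1,536-well plates.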

| Compound | cell count |
| --- | --- |
| O=c1[nH]nc(Sc2ncc([N+](=O)[O-])s2)n1-c1ccc2c(c1)OCCO2 + Cc1cn(-c2cc(NC(=O)c3ccc(C)c(Nc4nccc(-c5cccnc5)n4)c3)cc(C(F)(F)F)c2)cn1 [nilotinib] (first compound 0.2 µM, partner dose 0.2 µM) | 121% |
| O=c1[nH]nc(Sc2ncc([N+](=O)[O-])s2)n1-c1ccc2c(c1)OCCO2 + CC(C)C[C@H](NC(=O)[C@H](Cc1ccccc1)NC(=O)c1cnccn1)B(O)O [Bortezomib] (first compound 0.2 µM, partner dose 0.001 µM) | 94.5% |
| O=c1[nH]nc(Sc2ncc([N+](=O)[O-])s2)n1-c1ccc2c(c1)OCCO2 + Cc1nc(Nc2ncc(C(=O)Nc3c(C)cccc3Cl)s2)cc(N2CCN(CCO)CC2)n1 [dasatanib] (first compound 0.2 µM, partner dose 0.004 µM) | 72.7% |
| O=C(O)c1ccc(-c2c[nH]c3ncc(-c4ccccc4)cc23)cc1C1CCCC1 + Oc1nc(-c2ccc(C(F)(F)F)cc2)nc2c1CSCC2 [XAV939] (first compound 0.16 µM, partner dose 2 µM) | 104% |
| CC1(C)NC(=O)N(c2ccc([N+](=O)[O-])c(C(F)(F)F)c2)C1=O [nilutamide] + CCN(CC)CCCCNc1ncc2cc(-c3cc(OC)cc(OC)c3)c(NC(=O)NC(C)(C)C)nc2n1 [PD173074] (first compound 1 µM, partner dose 0.1 µM) | 106% |
| Cn1cncc1[C@@](N)(c1ccc(Cl)cc1)c1ccc2c(c1)c(-c1cccc(Cl)c1)cc(=O)n2C [tipifarnib] + c1cc(-c2cnn3cc(-c4ccc(OCCN5CCCCC5)cc4)cnc23)ccn1 [Dorsomorphin] (first compound 0.01 µM, partner dose 0.4 µM) | 96.7% |
| C[C@@H]1CCN(C(=O)CC#N)C[C@@H]1N(C)c1ncnc2[nH]ccc12 + COc1cc(N2CCC(N3CCN(C)CC3)CC2)ccc1Nc1ncc(Cl)c(Nc2ccccc2S(=O)(=O)C(C)C)n1 [NVP-TAE684] (first compound 1 µM, partner dose 0.08 µM) | 117% |
| O=C(O)c1ccc(-c2c[nH]c3ncc(-c4ccccc4)cc23)cc1C1CCCC1 + Oc1cc(-c2nc(-c3ccccc3)[nH]c2-c2ccncc2)ccc1Cl [L779450] (first compound 0.16 µM, partner dose 0.2 µM) | 100% |
| COc1cc(Nc2ncc(F)c(Nc3ccc4c(n3)NC(=O)C(C)(C)O4)n2)cc(OC)c1OC [Tamatinib] + COc1ccc2c(c1)CCC1C2CCC2(C)C(NCCCCCCN3C(=O)C=CC3=O)CCC12 [U73122] (first compound 0.4 µM, partner dose 0.4 µM) | 59.2% |
| C[C@@H]1CCN(C(=O)CC#N)C[C@@H]1N(C)c1ncnc2[nH]ccc12 + O=S(=O)(c1ccccc1)N(CC(F)(F)F)c1ccc(C(O)(C(F)(F)F)C(F)(F)F)cc1 [T0901317] (first compound 1 µM, partner dose 1.4 µM) | 80% |
| O=c1[nH]nc(Sc2ncc([N+](=O)[O-])s2)n1-c1ccc2c(c1)OCCO2 + COc1ccc(C2=N[C@@H](c3ccc(Cl)cc3)[C@@H](c3ccc(Cl)cc3)N2C(=O)N2CCNC(=O)C2)c(OC(C)C)c1 [Nutlin-3] (first compound 0.2 µM, partner dose 0.1 µM) | 87.3% |
| CC1(C)NC(=O)N(c2ccc([N+](=O)[O-])c(C(F)(F)F)c2)C1=O [nilutamide] + COc1cc(N2CCC(N3CCN(C)CC3)CC2)ccc1Nc1ncc(Cl)c(Nc2ccccc2S(=O)(=O)C(C)C)n1 [NVP-TAE684] (first compound 1 µM, partner dose 0.08 µM) | 56.8% |

Test system: G361
Test: as above
Details: library dose: low library concentration; 72 h

| Compound | cell count |
| --- | --- |
| COc1cc(Nc2ncc(F)c(Nc3ccc4c(n3)NC(=O)C(C)(C)O4)n2)cc(OC)c1OC [Tamatinib] + COC(=O)c1sccc1S(=O)(=O)Nc1ccc(Nc2ccccc2)cc1OC [GSK0660] (first compound 0.4 µM, partner dose 1 µM) | 86.8% |
| O=C(O)c1ccc(-c2c[nH]c3ncc(-c4ccccc4)cc23)cc1C1CCCC1 + O=C(O)C(=O)Nc1sc2c(c1C(=O)O)CCNC2 [TCS401] (first compound 0.16 µM, partner dose 1.66667 µM) | 91.4% |
| C[C@@H]1CCN(C(=O)CC#N)C[C@@H]1N(C)c1ncnc2[nH]ccc12 + N#Cc1c(O)c2c(-c3ccc(-c4ccccc4O)cc3)csc2[nH]c1=O [A769662] (first compound 1 µM, partner dose 2 µM) | 109% |
| C[C@@H]1CCN(C(=O)CC#N)C[C@@H]1N(C)c1ncnc2[nH]ccc12 + CC(C)CCN1c2nc(Nc3cc(F)c(O)c(F)c3)ncc2N(C)C(=O)C1C [BID1870] (first compound 1 µM, partner dose 0.2 µM) | 106% |
| C[C@@H]1CCN(C(=O)CC#N)C[C@@H]1N(C)c1ncnc2[nH]ccc12 + O=c1cc(-c2cccc3c2Sc2ccccc2S3)oc(N2CCOCC2)c1 [KU55933] (first compound 1 µM, partner dose 1 µM) | 95.3% |
| O=C(O)c1ccc(-c2c[nH]c3ncc(-c4ccccc4)cc23)cc1C1CCCC1 + O=C1NC(=O)/C(=C/c2ccc(-c3ccc(F)cc3O)o2)S1 [AS252424] (first compound 0.16 µM, partner dose 1 µM) | 85.8% |
| O=C(O)c1ccc(-c2c[nH]c3ncc(-c4ccccc4)cc23)cc1C1CCCC1 + CCN(CC)CCCCNc1ncc2cc(-c3cc(OC)cc(OC)c3)c(NC(=O)NC(C)(C)C)nc2n1 [PD173074] (first compound 0.16 µM, partner dose 0.1 µM) | 101% |
| O=c1[nH]nc(Sc2ncc([N+](=O)[O-])s2)n1-c1ccc2c(c1)OCCO2 + CN1CCN(c2ccc3nc(-c4c(N)c5c(F)cccc5[nH]c4=O)[nH]c3c2)CC1 [Dovitinib] (first compound 0.2 µM, partner dose 0.1 µM) | 109% |
| COc1cc(Nc2ncc(F)c(Nc3ccc4c(n3)NC(=O)C(C)(C)O4)n2)cc(OC)c1OC [Tamatinib] + COc1ccc(-c2ccc3c(N4CCOCC4)nc(N4C[C@@H](C)O[C@@H](C)C4)nc3n2)cc1CO [KU0063794] (first compound 0.4 µM, partner dose 0.02 µM) | 77.9% |
| O=c1[nH]nc(Sc2ncc([N+](=O)[O-])s2)n1-c1ccc2c(c1)OCCO2 + CCCS(=O)(=O)Nc1ccc(F)c(C(=O)c2c[nH]c3ncc(Cl)cc23)c1F [PLX4720] (first compound 0.2 µM, partner dose 0.08 µM) | 74.8% |
| O=c1[nH]nc(Sc2ncc([N+](=O)[O-])s2)n1-c1ccc2c(c1)OCCO2 + COc1ccc(Cl)c(Nc2nc3ccccc3nc2NS(=O)(=O)c2cccc(NC(=O)C(C)(C)N)c2)c1 [XL147] (first compound 0.2 µM, partner dose 0.8 µM) | 95.2% |
| C[C@@H]1CCN(C(=O)CC#N)C[C@@H]1N(C)c1ncnc2[nH]ccc12 + COc1ccc2c(c1)CCC1C2CCC2(C)C(NCCCCCCN3C(=O)C=CC3=O)CCC12 [U73122] (first compound 1 µM, partner dose 0.4 µM) | 92.4% |
| CC1(C)NC(=O)N(c2ccc([N+](=O)[O-])c(C(F)(F)F)c2)C1=O [nilutamide] + c1cc(-c2cnn3cc(-c4ccc(OCCN5CCCCC5)cc4)cnc23)ccn1 [Dorsomorphin] (first compound 1 µM, partner dose 0.4 µM) | 79.1% |
| O=c1[nH]nc(Sc2ncc([N+](=O)[O-])s2)n1-c1ccc2c(c1)OCCO2 + C=CCNC1=C2C[C@@H](C)C[C@H](OC)[C@H](O)[C@@H](C)/C=C(\C)[C@H](OC(N)=O)[C@@H](OC)/C=C\C=C(/C)C(=O)NC(=CC1=O)C2=O [Tanespimycin] (first compound 0.2 µM, partner dose 0.002 µM) | 86.6% |
| O=C(Nc1cccc(Cl)c1)Nc1ncc(CCNc2ncnc3ccsc23)s1 + COc1cc(N2CCC(N3CCN(C)CC3)CC2)ccc1Nc1ncc(Cl)c(Nc2ccccc2S(=O)(=O)C(C)C)n1 [NVP-TAE684] (first compound 0.0008 µM, partner dose 0.08 µM) | 96.7% |
| O=c1[nH]nc(Sc2ncc([N+](=O)[O-])s2)n1-c1ccc2c(c1)OCCO2 + C[C@]1(c2nc3c(C(N)=O)cccc3[nH]2)CCCN1 [Veliparib] (first compound 0.2 µM, partner dose 1.4 µM) | 93.9% |
| O=C(Nc1cccc(Cl)c1)Nc1ncc(CCNc2ncnc3ccsc23)s1 + CCCCCCCCCCCC1=C(O)C(=O)C=C(O)C1=O [Embelin] (first compound 0.0008 µM, partner dose 1.2 µM) | 98.3% |
| O=C(Nc1cccc(Cl)c1)Nc1ncc(CCNc2ncnc3ccsc23)s1 + c1cc(-c2cnn3cc(-c4ccc(OCCN5CCCCC5)cc4)cnc23)ccn1 [Dorsomorphin] (first compound 0.0008 µM, partner dose 0.4 µM) | 101% |
| C[C@@H]1CCN(C(=O)CC#N)C[C@@H]1N(C)c1ncnc2[nH]ccc12 + CCCCCCCCCCCC1=C(O)C(=O)C=C(O)C1=O [Embelin] (first compound 1 µM, partner dose 1.2 µM) | 88.3% |
| COc1cc(Nc2ncc(F)c(Nc3ccc4c(n3)NC(=O)C(C)(C)O4)n2)cc(OC)c1OC [Tamatinib] + Oc1nc(-c2ccc(C(F)(F)F)cc2)nc2c1CSCC2 [XAV939] (first compound 0.4 µM, partner dose 2 µM) | 91.3% |
